# From patent US20240425579A1 (Y TRAP, published 2024)
# B1: anti-IL-23-PD1ecd (anti-IL-23 antibody guselkumab with PD1 ECD A132I fused to the C terminus of the heavy chain via (GGGGS)3) (other)
# heavy: EVQLVQSGAEVKKPGESLKISCKGSGYSFSNYWIGWVRQMPGKGLEWMGIIDPSNSYTRYSPSFQGQVTISADKSISTAYLQWSSLKASDTAMYYCARWYYKPFDVWGQGTLVTVSS[here human IgG1 constant region with changes without letters]GGGGSGGGGSGGGGSPGWF[here about 150 residues without letters]
# light: QSVLTQPPSVSGAPGQRVTISCTGSSSNIGSGYDVHWYQQLPGTAPKLLIYGNSKRPSGVPDRFSGSKSGTSASLAITGLQSEDEADYYCASWTDGLSLVVFGGGTKLTVLGQPKAAPSVTLFPPSSEELQANKATLVCLISDFYPGAVTVAWKADSSPVKAGVETTTPSKQSNNKYAASSYLSLTPEQWKSHRSYSCQVTHEGSTVEKTVAPTECS
# notes: Antibody-receptor ECD fusion; also called a-IL-23-PD1 (A123I); anti-IL-23-PD1 (A123I)
# Assays:
# biotinylated hu-PDL2 [1] = target: T1, biotinylated hu-PDL2 (human, UniProt Q9BQ51 20-220, limits assumed, biotinylated); assay: ELISA: construct coated at 1 µg/mL, varying biotinylated hu-PDL2, streptavidin-HRP
# T1 construct: Soluble biotinylated protein detected with streptavidin-HRP
# T1 sequence (looked up): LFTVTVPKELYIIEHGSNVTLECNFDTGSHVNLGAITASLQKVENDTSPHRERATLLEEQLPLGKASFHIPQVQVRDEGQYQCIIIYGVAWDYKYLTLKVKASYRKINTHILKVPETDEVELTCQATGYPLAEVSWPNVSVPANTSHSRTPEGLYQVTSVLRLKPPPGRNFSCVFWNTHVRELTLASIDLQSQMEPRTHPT
# biotinylated hu-PDL2 [2] = target: T1, biotinylated hu-PDL2; assay: ELISA: varying concentrations of construct coated, fixed biotinylated hu-PDL2 (500 ng/mL)
binder,measurement,setting,value
B1,EC50,biotinylated hu-PDL2 [1],54 nM
same,EC50,biotinylated hu-PDL2 [2],780 nM
